# In the supplement of paper PMC8728848:
# The other results are listed elsewhere or left out.
# B1: Epa6 (Candida glabrata), Q6DTM7_CANGB (protein)
# chain: MGSSHHHHHHSSGLVPRGSHMKDDYSSSLSNNNLGWTDPTEFPLGCSPNVTTPKNGLSMELYSYDYLKSGSNPCWDAAYLDPNYPRTGYKSHRLLAKVENVAGNINFYYHAPMGCTSLFDTLPQAYNYRTPLTMTNFTMLLYGYFKPKVTGYHTFTISADDLLFVNFGAGNAFDCCKRESSADDFGNYQAYAVWGSQTAKDDLTVHLDAGLYYPIRIFFNNRDNDGALSLTLKTESDPNPVIDFSDYFYSFDDTKDGCPGLVSYDTS
# How the values were obtained:
# Assay in all cases: glycan array binding signal (z-score within array); higher = stronger binding
# Settings in all cases: glycan notation: IUPAC condensed, linker removed
# Gal(a1-3)GalNAc = target: Gal(a1-3)GalNAc
# Method in brief: (§1)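 Glycan array data came from 3228 arrays in the Consortium for Functional Glycomics database, and only arrays with an available protein sequence were kept. Glycan names were put into IUPAC-condensed notation, and columns mapping to the same glycan were averaged. The binding signal is a within-array Z-score, averaged across arrays of one protein sequence run at different concentrations or buffers and across linkers. A negative Z-score can be read as non-binding.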
# [1] = target: Gal(a1-3)[Gal(a1-4)]Gal(b1-4)GlcNAc
# Method in brief: as §1
# [2] = target: Gal(a1-4)Gal(b1-3)GlcNAc(b1-2)Man(a1-3)[Gal(a1-4)Gal(b1-3)GlcNAc(b1-2)Man(a1-6)]Man(b1-4)GlcNAc(b1-4)GlcNAc
# Method in brief: as §1
# Gal(a1-4)Gal(b1-4)Glc = target: Gal(a1-4)Gal(b1-4)Glc
# Method in brief: as §1
# Gal(a1-4)Gal(b1-4)GlcNAc = target: Gal(a1-4)Gal(b1-4)GlcNAc
# Method in brief: as §1
# [3] = target: Gal(a1-4)Gal(b1-4)GlcNAc(b1-2)Man(a1-3)[Gal(a1-4)Gal(b1-4)GlcNAc(b1-2)Man(a1-6)]Man(b1-4)GlcNAc(b1-4)GlcNAc
# Method in brief: as §1
# [4] = target: Gal(a1-4)Gal(b1-4)GlcNAc(b1-3)Gal(b1-4)Glc
# Method in brief: as §1
# Gal(a1-4)GlcNAc = target: Gal(a1-4)GlcNAc
# Method in brief: as §1
# Gal(a1-6)Glc = target: Gal(a1-6)Glc
# Method in brief: as §1
# Gal(b1-2)Gal = target: Gal(b1-2)Gal
# Method in brief: as §1
# Gal(b1-3)Gal = target: Gal(b1-3)Gal
# Method in brief: as §1
# Gal(b1-3)Gal(b1-4)GlcNAc = target: Gal(b1-3)Gal(b1-4)GlcNAc
# Method in brief: as §1
# Gal(b1-3)GalNAc = target: Gal(b1-3)GalNAc
# Method in brief: as §1
# [5] = target: Gal(b1-3)GalNAc(a1-3)[Fuc(a1-2)]Gal(b1-4)Glc
# Method in brief: as §1
# [6] = target: Gal(b1-3)GalNAc(a1-3)[Fuc(a1-2)]Gal(b1-4)GlcNAc
# Method in brief: as §1
# Gal(b1-3)GalNAc(b1-3)Gal = target: Gal(b1-3)GalNAc(b1-3)Gal
# Method in brief: as §1
# [7] = target: Gal(b1-3)GalNAc(b1-3)Gal(a1-4)Gal(b1-4)Glc
# Method in brief: as §1
# [8] = target: Gal(b1-3)GalNAc(b1-4)Gal(b1-4)Glc
# Method in brief: as §1
# [9] = target: Gal(b1-3)GalNAc(b1-4)[Neu5Ac(a2-3)]Gal(b1-4)Glc
# Method in brief: as §1
# Gal(b1-3)GlcNAc = target: Gal(b1-3)GlcNAc
# Method in brief: as §1
# [10] = target: Gal(b1-3)GlcNAc(a1-3)Gal(b1-4)GlcNAc
# Method in brief: as §1
# [11] = target: Gal(b1-3)GlcNAc(a1-6)Gal(b1-4)GlcNAc
# Method in brief: as §1
# Gal(b1-3)GlcNAc(b1-2)Man = target: Gal(b1-3)GlcNAc(b1-2)Man
# Method in brief: as §1
# [12] = target: Gal(b1-3)GlcNAc(b1-2)Man(a1-3)[Gal(b1-3)GlcNAc(b1-2)Man(a1-6)]Man(b1-4)GlcNAc(b1-4)GlcNAc
# Method in brief: as §1
# [13] = target: Gal(b1-3)GlcNAc(b1-2)Man(a1-3)[Gal(b1-3)GlcNAc(b1-2)Man(a1-6)]Man(b1-4)GlcNAc(b1-4)[Fuc(a1-6)]GlcNAc
# Method in brief: as §1
# [14] = target: Gal(b1-3)GlcNAc(b1-2)Man(a1-3)[GlcNAc(b1-4)][Gal(b1-3)GlcNAc(b1-2)Man(a1-6)]Man(b1-4)GlcNAc(b1-4)GlcNAc
# Method in brief: as §1
# [15] = target: Gal(b1-3)GlcNAc(b1-2)[Gal(b1-3)GlcNAc(b1-6)]Man(a1-6)[Gal(b1-3)GlcNAc(b1-2)Man(a1-3)]Man(b1-4)GlcNAc(b1-4)GlcNAc
# Method in brief: as §1
# [16] = target: Gal(b1-3)GlcNAc(b1-3)Gal(b1-3)GlcNAc
# Method in brief: as §1
# [17] = target: Gal(b1-3)GlcNAc(b1-3)Gal(b1-4)Glc
# Method in brief: as §1
# [18] = target: Gal(b1-3)GlcNAc(b1-3)Gal(b1-4)GlcNAc
# Method in brief: as §1
# [19] = target: Gal(b1-3)GlcNAc(b1-3)Gal(b1-4)GlcNAc(b1-2)Man(a1-3)[Gal(b1-3)GlcNAc(b1-3)Gal(b1-4)GlcNAc(b1-2)Man(a1-6)]Man(b1-4)GlcNAc(b1-4)GlcNAc
# Method in brief: as §1
# [20] = target: Gal(b1-3)GlcNAc(b1-3)Gal(b1-4)GlcNAc(b1-2)[Gal(b1-3)GlcNAc(b1-3)Gal(b1-4)GlcNAc(b1-6)]Man(a1-6)[Gal(b1-3)GlcNAc(b1-3)Gal(b1-4)GlcNAc(b1-2)Man(a1-3)]Man(b1-4)GlcNAc(b1-4)[Fuc(a1-6)]GlcNAc
# Method in brief: as §1
# [21] = target: Gal(b1-3)GlcNAc(b1-3)Gal(b1-4)GlcNAc(b1-3)Gal(b1-4)GlcNAc(b1-2)[Gal(b1-3)GlcNAc(b1-3)Gal(b1-4)GlcNAc(b1-3)Gal(b1-4)GlcNAc(b1-6)]Man(a1-6)[Gal(b1-3)GlcNAc(b1-3)Gal(b1-4)GlcNAc(b1-3)Gal(b1-4)GlcNAc(b1-2)Man(a1-3)]Man(b1-4)GlcNAc(b1-4)[Fuc(a1-6)]GlcNAc
# Method in brief: as §1
# [22] = target: Gal(b1-3)GlcNAc(b1-3)Gal(b1-4)GlcNAc(b1-6)[Gal(b1-3)GlcNAc(b1-3)]Gal(b1-4)Glc
# Method in brief: as §1
# [23] = target: Gal(b1-3)GlcNAc(b1-3)Gal(b1-4)[Fuc(a1-3)]GlcNAc
# Method in brief: as §1
# [24] = target: Gal(b1-3)GlcNAc(b1-3)Gal(b1-4)[Fuc(a1-3)]GlcNAc(b1-6)[Gal(b1-3)GlcNAc(b1-3)]Gal(b1-4)Glc
# Method in brief: as §1
# [25] = target: Gal(b1-3)GlcNAc(b1-3)GalNAc
# Method in brief: as §1
# [26] = target: Gal(b1-3)GlcNAc(b1-6)Gal(b1-4)GlcNAc
# Method in brief: as §1
binder,measurement,setting,value
B1,glycan array binding signal (z-score),Gal(a1-3)GalNAc,4.17
same,glycan array binding signal (z-score),[1],2.11
same,glycan array binding signal (z-score),[2],6.23
same,glycan array binding signal (z-score),Gal(a1-4)Gal(b1-4)Glc,1.45
same,glycan array binding signal (z-score),Gal(a1-4)Gal(b1-4)GlcNAc,4.65
same,glycan array binding signal (z-score),[3],4.02
same,glycan array binding signal (z-score),[4],4.42
same,glycan array binding signal (z-score),Gal(a1-4)GlcNAc,1.3
same,glycan array binding signal (z-score),Gal(a1-6)Glc,8.63
same,glycan array binding signal (z-score),Gal(b1-2)Gal,6.14
same,glycan array binding signal (z-score),Gal(b1-3)Gal,2.6
same,glycan array binding signal (z-score),Gal(b1-3)Gal(b1-4)GlcNAc,10
same,glycan array binding signal (z-score),Gal(b1-3)GalNAc,0.883
same,glycan array binding signal (z-score),[5],4.95
same,glycan array binding signal (z-score),[6],5.98
same,glycan array binding signal (z-score),Gal(b1-3)GalNAc(b1-3)Gal,3.02
same,glycan array binding signal (z-score),[7],1.6
same,glycan array binding signal (z-score),[8],3.9
same,glycan array binding signal (z-score),[9],1.52
same,glycan array binding signal (z-score),Gal(b1-3)GlcNAc,-0.129
same,glycan array binding signal (z-score),[10],-0.288
same,glycan array binding signal (z-score),[11],-0.287
same,glycan array binding signal (z-score),Gal(b1-3)GlcNAc(b1-2)Man,-0.043
same,glycan array binding signal (z-score),[12],-0.107
same,glycan array binding signal (z-score),[13],-0.16
same,glycan array binding signal (z-score),[14],0.156
same,glycan array binding signal (z-score),[15],-0.066
same,glycan array binding signal (z-score),[16],-0.207
same,glycan array binding signal (z-score),[17],-0.265
same,glycan array binding signal (z-score),[18],-0.312
same,glycan array binding signal (z-score),[19],-0.147
same,glycan array binding signal (z-score),[20],-0.073
same,glycan array binding signal (z-score),[21],-0.041
same,glycan array binding signal (z-score),[22],0.257
same,glycan array binding signal (z-score),[23],-0.276
same,glycan array binding signal (z-score),[24],-0.191
same,glycan array binding signal (z-score),[25],-0.227
same,glycan array binding signal (z-score),[26],-0.086
